The record followed here is ChEMBL document CHEMBL5724801, “EUbOPEN Chemogenomics Library - Multiplex” (2024).

For part of its entries the source gives two or more results. They are shown here; other results are not. An entry can have further records. Values that stand side by side are repeats in other runs, samples, wells, individuals or studies.

Assay type in all cases: toxicity, cell-based
Data set [1] has as its system U2OS. The experiment in a line: Multiplex assay against U2OS. To be noted: human. The procedure, abridged:
(§1)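 On a CQ1 microscope at 37°C and 5% CO2, live cells were imaged after compound addition. They had been stained at seeding with Hoechst33342, BioTracker Green Microtubule Cytoskeleton Dye, MitoTracker Red and Annexin V Alexa Fluor 680. CellPathfinder machine-learning gating assigned cells to Hoechst high-intensity objects or normal cells, normal cells to healthy, pyknosed or fragmented nuclei, and pyknosed cells to mitotic or apoptotic. Tubulin, mitochondrial-mass and membrane-permeability phenotypes are per cents of healthy-nucleus cells.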

Data set [2] deals with Fibroblast. The experiment in a line: Multiplex assay against human fibroblast. The method, boiled down:
as §1

Data set [3] has as its system HEK-293T. The experiment in a line: Multiplex assay against HEK293T. To be noted: human. The procedure, abridged:
as §1

The mark [4] stands for this setting: 48 h, 10 µM, compound concentration 10 uM.
Where [5] appears, read: 12 h, 1 µM, compound concentration 1 uM.
Setting [6] is: 24 h, 1 µM, compound concentration 1 uM.
The mark [7] stands for this setting: 24 h, 10 µM, compound concentration 10 uM.
Setting [8] is: 12 h, 10 µM, compound concentration 10 uM.
Where [9] appears, read: 48 h, 1 µM, compound concentration 1 uM.

`COc1ccc(CC(=O)NC(N/C(=N/C#N)Nc2cccc3ncccc23)C(C)(C)C)cc1OC` (configuration not stated): the “Total Cell Count” value is 965 and 285 in data set [1] (setting [4]); 549 and 181 in data set [3] (setting [6]); 1398 and 194 in data set [3] (setting [9]); 971 and 193 in data set [3] (setting [4]). For the same compound, the “Population Apoptotic (%)” value in data set [2] (setting [5]) was 4.17% and 14.29%; in data set [2] (setting [6]), 4.35% and 23.08%; in data set [2] (setting [7]), 7.69% and 29.63%; in data set [3] (setting [4]) it was 6.8% and 22.54%. In addition, the “Population Membrane Permeable-Phenotype (%)” value in data set [2] (setting [4]) was 2.06% and 14.77%. In addition, the “Population Healthy Nuclei (%)” value in data set [3] (setting [5]) was 58.89% and 18.75%. Moreover, the “Population Tubulin-Different-Phenotype (%)” value in data set [3] (setting [5]) is 7.55% and 36.67%; in data set [3] (setting [8]), 8.48% and 45.45%; in data set [3] (setting [9]), 1.73% and 48.72%; in data set [3] (setting [4]) it was 2.98% and 36.44%. For the same compound, the “Population Pyknosed Nuclei (%)” value was 10.45% and 36.6% in data set [3] (setting [9]); 10.62% and 36.79% in data set [3] (setting [4]).
`CN1CC[C@@]23CCCC[C@@H]2[C@@H]1Cc1ccc(O)cc13.O=C(O)C(O)C(O)C(=O)O`: the “Total Cell Count” value is 465 and 138 in data set [1] (setting [5]); 656 and 171 in data set [1] (setting [6]); 1243 and 281 in data set [1] (setting [9]); 659 and 197 in data set [3] (setting [6]); 484 and 150 in data set [3] (setting [7]); 1598 and 337 in data set [3] (setting [9]). For the same compound, the “Total Cell Count” value in data set [3] (setting [4]) is 1052 and 235. Moreover, the “Population Fragmented Nuclei (%)” value in data set [1] (setting [8]) was 1.59% and 35.94%; in data set [1] (setting [7]) it was 1.13% and 30.21%; in data set [1] (setting [4]), 3.17% and 17.36%. The “Population Mitochondria Different-Phenotype (%)” value was 0.34% and 12.93% in data set [1] (setting [6]); 17.05% and 2.64% in data set [2] (setting [9]). Also, the “Population Tubulin-Different-Phenotype (%)” value in data set [3] (setting [5]) is 5.02% and 25%; in data set [3] (setting [8]) it was 4.62% and 46.15%; in data set [3] (setting [9]), 1.08% and 15.21%; in data set [3] (setting [4]), 1.19% and 29.01%. In addition, the “Population Pyknosed Nuclei (%)” value in data set [3] (setting [6]) is 14.89% and 50%. Besides, the “Population Apoptotic (%)” value in data set [3] (setting [9]) was 2.11% and 16.67%; in data set [3] (setting [4]) it was 4.81% and 18.84%.
For the compound `Cc1c(C(=O)NCCCN(C)C)sc2ncnc(Nc3ccc(F)cc3OC(C)CF)c12` (configuration not stated), the “Population Mitochondria Different-Phenotype (%)” value in data set [1] (setting [8]) is 3.55% and 62.89%; in data set [1] (setting [6]), 0.25% and 10.87%; in data set [1] (setting [7]) it was 10.23% and 68.63%; in data set [1] (setting [4]) it was 8.08% and 43.33%; in data set [3] (setting [8]) it was 49.06% and 6.67%. The “Total Cell Count” value in data set [1] (setting [8]) was 445 and 148; in data set [1] (setting [9]), 890 and 276; in data set [1] (setting [4]), 538 and 175; in data set [3] (setting [6]), 575 and 155; in data set [3] (setting [9]) it was 1377 and 206. Besides, the “Population Apoptotic (%)” value in data set [2] (setting [5]) was 7.58% and 25%; in data set [2] (setting [6]), 5.26% and 27.27%. Besides, the “Population Healthy Nuclei (%)” value in data set [3] (setting [5]) was 64.3% and 12.16%; in data set [3] (setting [6]), 77.04% and 23.23%. In addition, the “Population Tubulin-Different-Phenotype (%)” value is 15.35% and 55.56% in data set [3] (setting [5]); 4.02% and 74.34% in data set [3] (setting [9]). Also, the “Population Membrane Permeable-Phenotype (%)” value in data set [3] (setting [8]) is 1.89% and 13.33%. The “Population Pyknosed Nuclei (%)” value was 20.52% and 74.19% in data set [3] (setting [6]); 9.51% and 42.72% in data set [3] (setting [9]).
For the compound `Oc1c(CN2CCN(c3ccccn3)CC2)cc(Cl)c2cccnc12`, in data set [1] (setting [6]), the “Population Fragmented Nuclei (%)” value was 29% and 7%. The “Population Mitotic Cells (%)” value in data set [2] (setting [7]) was 10% and 43%; in data set [3] (setting [4]), 16% and 5%.
On to `COC(=O)C1=C(C)NC(C)=C(C(=O)OC(C)C)C1c1cccc2nonc12` (configuration not stated) [ISRADIPINE], for which the “Population Fragmented Nuclei (%)” value was 0.8% and 14.78% in data set [1] (setting [8]); 3.11% and 13.39% in data set [1] (setting [7]). In addition, the “Population Mitochondria Different-Phenotype (%)” value was 0.46% and 16.95% in data set [1] (setting [7]); 16.11% and 4.19% in data set [2] (setting [9]). For the same compound, the “Total Cell Count” value in data set [1] (setting [9]) was 829 and 257; in data set [3] (setting [6]) it was 549 and 175; in data set [3] (setting [9]) it was 1443 and 292. The “Population Apoptotic (%)” value is 5.36% and 22.45% in data set [2] (setting [8]); 1.89% and 19.15% in data set [2] (setting [7]). The “Population Healthy Nuclei (%)” value in data set [3] (setting [5]) is 65.02% and 16.79%; in data set [3] (setting [8]) it was 50% and 8.97%; in data set [3] (setting [7]), 67.92% and 17.82%. The “Population Tubulin-Different-Phenotype (%)” value was 4.76% and 34.78% in data set [3] (setting [5]); 7.14% and 71.43% in data set [3] (setting [8]); 0.88% and 20.36% in data set [3] (setting [9]); 3.36% and 63.56% in data set [3] (setting [4]). Besides, the “Population Pyknosed Nuclei (%)” value in data set [3] (setting [4]) is 13.96% and 48.55%.
Take `CCn1c(-c2nonc2N)nc2c(C#CC(C)(C)O)ncc(OCC3CCCNC3)c21` (configuration not stated): the “Population Mitochondria Different-Phenotype (%)” value in data set [1] (setting [8]) is 1.89% and 27.72%; in data set [1] (setting [7]), 1.45% and 28.43%; in data set [2] (setting [7]), 19.2% and 3.38%; in data set [2] (setting [9]), 13.04% and 2.78%. Moreover, the “Total Cell Count” value is 656 and 196 in data set [1] (setting [4]); 633 and 178 in data set [3] (setting [9]). For the same compound, the “Population Apoptotic (%)” value in data set [2] (setting [6]) was 10% and 36.67%. In addition, the “Population Tubulin-Different-Phenotype (%)” value in data set [2] (setting [6]) is 6.14% and 18.45%; in data set [2] (setting [9]), 4.35% and 14.81%; in data set [3] (setting [5]) it was 5.7% and 45.45%; in data set [3] (setting [6]), 27.18% and 8.57%; in data set [3] (setting [9]), 3.31% and 34.07%. Besides, the “Population Healthy Nuclei (%)” value was 46.33% and 7.59% in data set [3] (setting [5]); 34.53% and 5.81% in data set [3] (setting [8]); 46.08% and 7.36% in data set [3] (setting [7]).
For `CCOC(=O)c1c(/C(C#N)=C\N)c2ccc(Cl)c(Cl)c2n1C`, the “Total Cell Count” value in data set [1] (setting [5]) was 471 and 149; in data set [1] (setting [6]) it was 613 and 182; in data set [1] (setting [9]), 1136 and 307; in data set [3] (setting [6]) it was 543 and 155; in data set [3] (setting [9]), 1633 and 274; in data set [3] (setting [4]), 1286 and 325. The “Population Fragmented Nuclei (%)” value in data set [1] (setting [8]) was 1.91% and 12.2%. In data set [2] (setting [5]), the “Population Apoptotic (%)” value is 3.57% and 14.63%. The “Population Mitochondria Different-Phenotype (%)” value in data set [2] (setting [9]) is 15.15% and 4.02%. Moreover, the “Population Tubulin-Different-Phenotype (%)” value in data set [2] (setting [4]) is 3.37% and 17.56%; in data set [3] (setting [5]), 2.79% and 31.03%; in data set [3] (setting [8]) it was 6.95% and 34.04%; in data set [3] (setting [9]), 0.71% and 19.7%; in data set [3] (setting [4]), 0.54% and 17.69%.
As for `Cl.Cl.OCCOCCN1CCN(C(c2ccccc2)c2ccc(Cl)cc2)CC1` (configuration not stated) [HYDROXYZINE HYDROCHLORIDE], the “Population Mitotic Cells (%)” value was 41% and 11% in data set [1] (setting [8]); 4% and 22% in data set [1] (setting [6]); 19% and 62% in data set [2] (setting [4]). Also, the “Population Hoechst High Intensity Objects (%)” value in data set [3] (setting [6]) is 2% and 13%.
Consider `Cc1c(-c2cc(-c3ccccc3Cl)no2)cnn1C1CCNCC1.Cl`, for which the “Population Mitochondria Different-Phenotype (%)” value is 5.98% and 51.85% in data set [1] (setting [8]); 6.77% and 46.43% in data set [1] (setting [7]); 5.76% and 50% in data set [1] (setting [4]). Besides, the “Population Healthy Nuclei (%)” value was 43.31% and 8.7% in data set [1] (setting [4]); 53.87% and 7.3% in data set [3] (setting [5]); 18.67% and 2.22% in data set [3] (setting [8]); 19.81% and 4.79% in data set [3] (setting [7]); 42.92% and 3.7% in data set [3] (setting [4]). The “Population Membrane Permeable-Phenotype (%)” value was 29.32% and 8.33% in data set [1] (setting [4]); 5.8% and 18.42% in data set [2] (setting [4]). Moreover, the “Population Mitotic Cells (%)” value in data set [1] (setting [4]) is 40.57% and 4.07%; in data set [2] (setting [4]), 46.59% and 7.94%; in data set [3] (setting [4]) it was 40.3% and 12.16%. Further, the “Total Cell Count” value is 444 and 138 in data set [1] (setting [4]); 474 and 146 in data set [3] (setting [6]); 1036 and 155 in data set [3] (setting [9]). The “Population Apoptotic (%)” value in data set [2] (setting [5]) is 6.56% and 31.43%. The “Population Pyknosed Nuclei (%)” value in data set [3] (setting [9]) is 13.9% and 42.48%. Also, the “Population Tubulin-Different-Phenotype (%)” value in data set [3] (setting [9]) was 4.54% and 69.05%.
Take `O=C(Nc1c[nH]nc1-c1nc2cc(CN3CCOCC3)ccc2[nH]1)NC1CC1` [AT-9283]: the “Population Mitochondria Different-Phenotype (%)” value was 0.42% and 19.32% in data set [1] (setting [9]); 25% and 8% in data set [3] (setting [5]); 41.43% and 11.76% in data set [3] (setting [8]); 32.14% and 10% in data set [3] (setting [7]). Further, the “Population Mitotic Cells (%)” value in data set [2] (setting [4]) was 56.52% and 8.99%. The “Population Tubulin-Different-Phenotype (%)” value is 5.56% and 40% in data set [3] (setting [5]); 5.92% and 65.52% in data set [3] (setting [9]). Further, the “Population Healthy Nuclei (%)” value is 54.96% and 15.69% in data set [3] (setting [6]); 20.9% and 6.71% in data set [3] (setting [7]); 18.75% and 6% in data set [3] (setting [4]). The “Population Pyknosed Nuclei (%)” value in data set [3] (setting [9]) is 17.6% and 53.97%.
